# Assay results from PMC4336329 (PLoS ONE, 2015).
# In all, about 310,000 compounds went through this assay and about 14,000 (4.5%) showed an effect of 50% or more. Effects have a minus sign here. The list shows a part of the results.
# Target: human ether-à-go-go-related gene (hERG) potassium channel (human, UniProt Q12809)
# Experiment: primary screen, population patch clamp on CHO cells stably expressing hERG
# 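Also: peak tail current of the secondary pulse compared with the same well before compound.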
# human ether-à-go-go-related gene (hERG) potassium channel, sequence (Q12809 whole entry, looked up): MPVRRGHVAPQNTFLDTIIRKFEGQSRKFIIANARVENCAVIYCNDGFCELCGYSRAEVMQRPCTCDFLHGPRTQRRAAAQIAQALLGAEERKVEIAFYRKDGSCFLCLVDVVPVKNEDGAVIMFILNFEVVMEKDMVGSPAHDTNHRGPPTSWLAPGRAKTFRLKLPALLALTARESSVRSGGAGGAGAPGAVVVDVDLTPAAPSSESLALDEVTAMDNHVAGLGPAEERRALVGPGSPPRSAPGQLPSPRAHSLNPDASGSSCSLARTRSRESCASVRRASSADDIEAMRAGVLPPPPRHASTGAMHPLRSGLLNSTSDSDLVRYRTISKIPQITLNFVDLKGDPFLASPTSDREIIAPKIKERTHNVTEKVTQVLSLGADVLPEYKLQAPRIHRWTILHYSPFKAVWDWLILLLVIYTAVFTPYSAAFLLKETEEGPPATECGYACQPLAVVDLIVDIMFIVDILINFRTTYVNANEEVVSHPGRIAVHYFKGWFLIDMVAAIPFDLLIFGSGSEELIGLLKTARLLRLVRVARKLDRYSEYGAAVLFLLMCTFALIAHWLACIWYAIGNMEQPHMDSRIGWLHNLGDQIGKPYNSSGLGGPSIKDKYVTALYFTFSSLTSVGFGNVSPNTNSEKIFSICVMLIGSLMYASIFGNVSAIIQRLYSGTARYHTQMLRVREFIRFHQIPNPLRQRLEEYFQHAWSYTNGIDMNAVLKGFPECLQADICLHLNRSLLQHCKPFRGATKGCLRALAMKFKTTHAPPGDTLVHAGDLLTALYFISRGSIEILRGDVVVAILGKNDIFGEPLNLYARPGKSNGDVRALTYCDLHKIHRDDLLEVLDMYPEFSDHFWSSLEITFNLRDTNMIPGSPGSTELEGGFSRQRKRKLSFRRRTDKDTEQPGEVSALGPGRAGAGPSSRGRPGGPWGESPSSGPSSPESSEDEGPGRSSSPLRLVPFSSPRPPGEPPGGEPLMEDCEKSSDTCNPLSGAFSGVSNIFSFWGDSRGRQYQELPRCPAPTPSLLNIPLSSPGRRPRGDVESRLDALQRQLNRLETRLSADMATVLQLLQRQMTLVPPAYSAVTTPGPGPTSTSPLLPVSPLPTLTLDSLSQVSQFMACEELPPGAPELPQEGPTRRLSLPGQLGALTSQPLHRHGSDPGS
row,Compound,"hERG current change (%, negative = inhibition) at 10uM [%]"
1,COc1cc(OC)cc(C(=O)NC(=S)N2C[C@H]3C[C@H](C2)c2cccc(=O)n2C3)c1,16.6
2,COc1ccc(/C=N/N=C/c2c[nH]c(=O)c(C#N)c2Nc2ccccc2)cc1,5.81
3,NC(=S)NNC(=O)c1ccccc1Cl,2.41
4,CCC(=O)Nc1nc2ccc(NC(=O)COc3ccccc3)cc2s1,28.7
5,Cc1ccc(S(=O)(=O)N2CCc3ccccc3C2)cc1C,20.4
6,O=C(CCN1CCN(c2ccccc2)CC1)Nc1ccc(OCc2ccccc2)cc1,6.94
7,CC(C)c1cc(C(=O)N2CCCC(Nc3ccc(F)cc3)C2)nc(N)n1 (centres unmarked),17.8
8,COC(=O)[C@@H]1[C@@H](C#N)C2(c3ccccc3-c3ccccc32)N(c2ccc(Cl)cc2)N1C#N,3.67
9,CCn1c(SCC(=O)Nc2ccc3c(c2)OCCO3)nnc1-c1ccccn1,-16.1
10,C=CCN1C(=O)C(CC(=O)O)SC1=Nc1cccc([N+](=O)[O-])c1 (centres unmarked),6.72
11,Cc1nn(Cc2ccc(F)cc2)c(C)c1NC(=O)C1c2ccccc2Oc2ccccc21,17.1
12,Cc1ccc(NC(=O)C2CCN(S(=O)(=O)c3c(C)[nH]c(=O)[nH]c3=O)CC2)cc1,12.9
13,CCOC(=O)c1c(S(=O)(=O)N2CCN(C3CCCCC3)CC2)c(C)n(C)c1C,-35.1
14,Cc1ccc(-c2nc3ccccc3c(=O)n2-c2cccc(C)n2)cc1,-2.48
15,Cc1cccc(NC(=O)NCc2ccc3c(c2)OCO3)c1C,2.89
16,COC(=O)c1nn(-c2ccccc2)c(=O)cc1Sc1ccc(Cl)cc1,3
17,CC(OC(=O)Cc1n[nH]c(=O)c2ccccc12)C(=O)Nc1ccc(Cl)cn1 (centres unmarked),-9.18
18,Cc1ccc(C)c(N(CC(=O)NC2CCCC2)C(=O)c2csnn2)c1,12
19,O=C(COc1ccc(Cl)cc1Cl)NNC(=S)NCc1ccco1,-19.6
20,COc1cc(OC)cc(C(=O)NCCSC2CCCCC2)c1,-19.7
21,CN(C)S(=O)(=O)c1ccc(Cl)c(C(=O)Nc2cccc3ncccc23)c1,3.53
22,O=C(c1cnccn1)N1CCc2ccccc2C1,3.49

row,Compound,"hERG current change (%, negative = inhibition) at 10uM [%]"
1,Cc1ccc(Nc2nc(CSc3nnnn3C)cs2)cc1,-14.8
2,CS(=O)(=O)Nc1cccc(C2=NN(C(=O)c3ccc(F)cc3)C(c3cccs3)C2)c1 (centres unmarked),-7.71
3,CCN(CC)S(=O)(=O)c1ccc(Cl)c(NC(=O)COC(=O)C2CCCCC2)c1,-3.35
4,COc1ccc(N2CC(C(=O)NC3CC(C)(C)NC(C)(C)C3)CC2=O)cc1 (centres unmarked),-2.68
5,CN(C(=O)COc1ccc(-c2nnco2)cc1)C1CCS(=O)(=O)C1 (centres unmarked),-8.5
6,O=C(NS(=O)(=O)c1ccccc1)c1ccccc1O,-6.27
7,O=C(/C=C/NNC(=O)c1ccccc1)c1ccccc1,-6.75
8,Cc1ccc(C2CC(c3ccco3)=NN2S(C)(=O)=O)cc1 (centres unmarked),-2.3
9,O=C(COC(=O)Cc1ccsc1)Nc1ccccc1,5
10,CCOc1ncccc1C(=O)Nc1cc(S(=O)(=O)N2CCCCC2)ccc1Cl,20.5
11,O=C(NCc1ccc2c(c1)OCO2)c1n[nH]c(=O)c2ccccc12,20.6
12,COc1ccc(-c2noc(=O)n2Cc2cc(C)ccc2C)cc1,-3.12
13,CN(CC(=O)NC1CCN(Cc2ccccc2)CC1)S(=O)(=O)c1ccc(Cl)s1,-67.9
14,COC(=O)c1cccc(CN2C(=O)SC(Nc3ccc(C)cc3)C2=O)c1 (centres unmarked),8.07
15,Cc1ccc(S(=O)(=O)N2CC(O)CC2C(=O)OCc2nc3sc(C)c(C)c3c(=O)[nH]2)cc1 (centres unmarked),-9.59
16,O=[N+]([O-])c1ccccc1S(=O)(=O)Nc1ccc(-c2ccc3nncn3n2)cc1,-22
17,COc1ccc(C)cc1Nc1nc(-c2c[nH]c3ccccc23)cs1,4.34
18,COc1ccc(-n2nc3c(c2NC(=O)CCCCl)CSC3)cc1,-1.78
19,Cc1cc(/C=N/NC(=O)c2c(Br)cnn2C)c(C)n1-c1cccc(Br)c1,10.4
20,c1ccc2nc3c(nc2c1)c1ccccc1n3CCN1CCOCC1,-48.5
21,CCN1CCN(c2ccc(S(=O)(=O)N3CCCCC3)cc2NC(=O)/C=C/c2cc(OC)ccc2OC)CC1,-52.7
22,COc1cccc(NC(=S)NCc2ccccn2)c1,12.5
